Among the data in the supplement of paper PMC8047034 are log2 surviving fraction values, retold here.

Structures are written as SMILES. Counter-ions that a name gives are not always drawn. This is one part of the list. Many values rest on one well or one pass, so single values are uncertain.

Test [1] has as its system OVCAR4. Put plainly: log2 surviving fraction (library drug vs vehicle, or drug + carboplatin vs carboplatin alone; relative to plate median); ovarian cancer lines: OVCAR4 is platinum-sensitive and Ov4Carbo platinum-resistant; higher = more cell survival. To be noted: library drug concentration 10 µM, 7 days.
Test [2] relates to Ov4Carbo. Described as above. To be noted: library drug concentration 10 µM, 7 days.

With `CC/C(=C(\c1ccccc1)c1ccc(OCCN(C)C)cc1)c1ccccc1` [Tamoxifen Citrate (Nolvadex)], the log2 surviving fraction in test [1] (carboplatin co-treatment 0 µM) was -3.1; in test [1] (carboplatin co-treatment 5 µM) it was -2.69; in test [2] (carboplatin co-treatment 0 µM) it was -3.73; in test [2] (carboplatin co-treatment 5 µM), -3.03.

`O=c1oc2cc(O)ccc2s1` [Tioxolone]: the log2 surviving fraction was -0.325 in test [1] (carboplatin co-treatment 0 µM), -0.238 in test [1] (carboplatin co-treatment 5 µM), -0.165 in test [2] (carboplatin co-treatment 0 µM) and -0.229 in test [2] (carboplatin co-treatment 5 µM).

Take `CC(=O)[C@@]1(O)CC[C@H]2[C@@H]3CCC4=CC(=O)CCC4=C3[C@@H](c3ccc(N(C)C)cc3)C[C@@]21C` [Ulipristal]: the log2 surviving fraction in test [1] (carboplatin co-treatment 0 µM) was -1.51; in test [1] (carboplatin co-treatment 5 µM), -1.06; in test [2] (carboplatin co-treatment 0 µM), -1.27; in test [2] (carboplatin co-treatment 5 µM) it was 0.227.

`Cc1cc(C#N)cc(C)c1Oc1nc(Nc2ccc(C#N)cc2)nc(N)c1Br` [Etravirine (TMC125)]: the log2 surviving fraction in test [1] (carboplatin co-treatment 0 µM) is -4.47; in test [1] (carboplatin co-treatment 5 µM) it was -3.02; in test [2] (carboplatin co-treatment 0 µM), -2.97; in test [2] (carboplatin co-treatment 5 µM) it was -1.95.

For `CCCCCCCCCCCCCCCC[N+](C)(C)CCN(Cc1ccc(OC)cc1)c1ncccn1` [Thonzonium Bromide], the log2 surviving fraction in test [1] (carboplatin co-treatment 0 µM) was -9.13; in test [1] (carboplatin co-treatment 5 µM) it was -7.89; in test [2] (carboplatin co-treatment 0 µM), -8.36; in test [2] (carboplatin co-treatment 5 µM), -7.46.

On to `CCOC(=O)O[C@]1(C(=O)OCCl)CC[C@H]2[C@@H]3CCC4=CC(=O)C=C[C@]4(C)[C@H]3[C@@H](O)C[C@@]21C` [Loteprednol etabonate], for which the log2 surviving fraction in test [1] (carboplatin co-treatment 0 µM) is -10.1; in test [1] (carboplatin co-treatment 5 µM) it was 0.132; in test [2] (carboplatin co-treatment 0 µM), 1.1; in test [2] (carboplatin co-treatment 5 µM), 0.478.

For `C[C@@H]1CN(c2c(F)c(F)c3c(=O)c(C(=O)O)cn(C4CC4)c3c2F)C[C@H](C)N1` [Orbifloxacin], the log2 surviving fraction in test [1] (carboplatin co-treatment 0 µM) turned out to be 0.0374; in test [1] (carboplatin co-treatment 5 µM), 0.568; in test [2] (carboplatin co-treatment 0 µM), 0.0241; in test [2] (carboplatin co-treatment 5 µM), 0.594.

In the case of `C[C@H]1c2cccc(O)c2C(=O)C2=C(O)[C@]3(O)C(=O)C(C(N)=O)=C(O)[C@@H](N(C)C)[C@@H]3[C@@H](O)[C@@H]21` [Doxycycline HCl], the log2 surviving fraction in test [1] (carboplatin co-treatment 0 µM) was -0.966; in test [1] (carboplatin co-treatment 5 µM), -0.375; in test [2] (carboplatin co-treatment 0 µM) it was 0.404; in test [2] (carboplatin co-treatment 5 µM) it was 0.275.

As to `Nc1nc2ccc(OC(F)(F)F)cc2s1` [Riluzole (Rilutek)], the log2 surviving fraction in test [1] (carboplatin co-treatment 0 µM) was 0.174; in test [1] (carboplatin co-treatment 5 µM) it was -0.731; in test [2] (carboplatin co-treatment 0 µM), 0.184; in test [2] (carboplatin co-treatment 5 µM) it was -0.668.

Consider `CC(C)C[C@H](NC(=O)[C@@H](O)[C@H](N)Cc1ccccc1)C(=O)O` [Ubenimex (Bestatin)], for which the log2 surviving fraction is -0.00804 in test [1] (carboplatin co-treatment 0 µM), -0.042 in test [1] (carboplatin co-treatment 5 µM), -0.00306 in test [2] (carboplatin co-treatment 0 µM) and -0.051 in test [2] (carboplatin co-treatment 5 µM).

`NS(=O)(=O)c1cc(C(=O)O)c(NCc2ccco2)cc1Cl` [Furosemide (Lasix)]: the log2 surviving fraction turned out to be 1.24 in test [1] (carboplatin co-treatment 0 µM), 0.341 in test [1] (carboplatin co-treatment 5 µM), 0.945 in test [2] (carboplatin co-treatment 0 µM) and 0.494 in test [2] (carboplatin co-treatment 5 µM).

For the compound `COc1ccc2c(c1)c(CC(=O)OCC(=O)O)c(C)n2C(=O)c1ccc(Cl)cc1` [Acemetacin (Emflex)], the log2 surviving fraction in test [1] (carboplatin co-treatment 0 µM) is -0.198; in test [1] (carboplatin co-treatment 5 µM), -0.00139; in test [2] (carboplatin co-treatment 0 µM), 0.493; in test [2] (carboplatin co-treatment 5 µM), -0.157.

Turning to `Nc1nc2c(ncn2COC(CO)CO)c(=O)[nH]1` [Ganciclovir], the log2 surviving fraction in test [1] (carboplatin co-treatment 0 µM) was 0.155; in test [1] (carboplatin co-treatment 5 µM) it was 0.235; in test [2] (carboplatin co-treatment 0 µM), -0.163; in test [2] (carboplatin co-treatment 5 µM) it was 0.17.

For `CCc1cccc2c3c([nH]c12)C(CC)(CC(=O)O)OCC3` (centres undefined) [Etodolac (Lodine)], the log2 surviving fraction in test [1] (carboplatin co-treatment 0 µM) was -7.28; in test [1] (carboplatin co-treatment 5 µM) it was -0.0175; in test [2] (carboplatin co-treatment 0 µM), 0.683; in test [2] (carboplatin co-treatment 5 µM) it was 0.205.

For `CCCC(=O)O[C@]1(C(=O)COC(C)=O)CC[C@H]2[C@@H]3C[C@H](F)C4=CC(=O)C=C[C@]4(C)[C@@]3(F)[C@@H](O)C[C@@]21C` [Difluprednate], the log2 surviving fraction is -0.239 in test [1] (carboplatin co-treatment 0 µM), -0.585 in test [1] (carboplatin co-treatment 5 µM), 1.43 in test [2] (carboplatin co-treatment 0 µM) and -0.125 in test [2] (carboplatin co-treatment 5 µM).

For `CC(=O)OCC[N+](C)(C)C` [Acetylcholine chloride], the log2 surviving fraction in test [1] (carboplatin co-treatment 0 µM) was determined as 0.0558; in test [1] (carboplatin co-treatment 5 µM), 0.621; in test [2] (carboplatin co-treatment 0 µM) it was 0.281; in test [2] (carboplatin co-treatment 5 µM), 0.7.

Take `CC#C[C@]1(O)CC[C@H]2[C@@H]3CCC4=CC(=O)CCC4=C3[C@@H](c3ccc(N(C)C)cc3)C[C@@]21C` [Mifepristone (Mifeprex)]: the log2 surviving fraction was -1.78 in test [1] (carboplatin co-treatment 0 µM), -1.46 in test [1] (carboplatin co-treatment 5 µM), -1.1 in test [2] (carboplatin co-treatment 0 µM) and -1.68 in test [2] (carboplatin co-treatment 5 µM).

Turning to `CC(C)NC[C@@H](O)COc1ccc(CC(N)=O)cc1` [(R)-(+)-Atenolol], the log2 surviving fraction was 0.279 in test [1] (carboplatin co-treatment 0 µM), 0.715 in test [1] (carboplatin co-treatment 5 µM), -0.0391 in test [2] (carboplatin co-treatment 0 µM) and 0.284 in test [2] (carboplatin co-treatment 5 µM).

For the compound `Cc1ccnc(NS(=O)(=O)c2ccc(N)cc2)n1` [Sulfamerazine], the log2 surviving fraction in test [1] (carboplatin co-treatment 0 µM) was 0.105; in test [1] (carboplatin co-treatment 5 µM), 0.447; in test [2] (carboplatin co-treatment 0 µM), -0.4; in test [2] (carboplatin co-treatment 5 µM) it was -0.0179.

On to `C=C[C@H]1CN2CC[C@H]1C[C@H]2[C@H](O)c1ccnc2ccc(OC)cc12` [Quinine hydrochloride dihydrate], for which the log2 surviving fraction in test [1] (carboplatin co-treatment 0 µM) is -0.507; in test [1] (carboplatin co-treatment 5 µM), -0.588; in test [2] (carboplatin co-treatment 0 µM), -0.392; in test [2] (carboplatin co-treatment 5 µM), -0.295.

As to `NC(=O)N1c2ccccc2CC(=O)c2ccccc21` [Oxcarbazepine], the log2 surviving fraction in test [1] (carboplatin co-treatment 0 µM) is 1.19; in test [1] (carboplatin co-treatment 5 µM), -1.63; in test [2] (carboplatin co-treatment 0 µM), 0.971; in test [2] (carboplatin co-treatment 5 µM), 0.288.
